In PubChem BioAssay AID1347165 (National Center for Advancing Translational Sciences (NCATS), 2019):
The whole screen tested about 220,000 compounds, of which about 5,700 (2.6%) were called active. Inconclusive results, whose numbers are uncertain, are shown with a selection of clear calls. The call rests on the fitted dose curve; in most records, active means well fitted inhibition curve with a large enough effect; inconclusive means small, poorly fitted or top-dose-only effect; inactive means no such curve, though single readings can be large or run the other way. Where the call is inconclusive, the potency comes from a doubtful curve fit.

Target: Lysine-specific demethylase 5B (Homo sapiens) (UniProt Q9UGL1)
Sequence of UniProt Q9UGL1 (Q9UGL1 whole entry, looked up): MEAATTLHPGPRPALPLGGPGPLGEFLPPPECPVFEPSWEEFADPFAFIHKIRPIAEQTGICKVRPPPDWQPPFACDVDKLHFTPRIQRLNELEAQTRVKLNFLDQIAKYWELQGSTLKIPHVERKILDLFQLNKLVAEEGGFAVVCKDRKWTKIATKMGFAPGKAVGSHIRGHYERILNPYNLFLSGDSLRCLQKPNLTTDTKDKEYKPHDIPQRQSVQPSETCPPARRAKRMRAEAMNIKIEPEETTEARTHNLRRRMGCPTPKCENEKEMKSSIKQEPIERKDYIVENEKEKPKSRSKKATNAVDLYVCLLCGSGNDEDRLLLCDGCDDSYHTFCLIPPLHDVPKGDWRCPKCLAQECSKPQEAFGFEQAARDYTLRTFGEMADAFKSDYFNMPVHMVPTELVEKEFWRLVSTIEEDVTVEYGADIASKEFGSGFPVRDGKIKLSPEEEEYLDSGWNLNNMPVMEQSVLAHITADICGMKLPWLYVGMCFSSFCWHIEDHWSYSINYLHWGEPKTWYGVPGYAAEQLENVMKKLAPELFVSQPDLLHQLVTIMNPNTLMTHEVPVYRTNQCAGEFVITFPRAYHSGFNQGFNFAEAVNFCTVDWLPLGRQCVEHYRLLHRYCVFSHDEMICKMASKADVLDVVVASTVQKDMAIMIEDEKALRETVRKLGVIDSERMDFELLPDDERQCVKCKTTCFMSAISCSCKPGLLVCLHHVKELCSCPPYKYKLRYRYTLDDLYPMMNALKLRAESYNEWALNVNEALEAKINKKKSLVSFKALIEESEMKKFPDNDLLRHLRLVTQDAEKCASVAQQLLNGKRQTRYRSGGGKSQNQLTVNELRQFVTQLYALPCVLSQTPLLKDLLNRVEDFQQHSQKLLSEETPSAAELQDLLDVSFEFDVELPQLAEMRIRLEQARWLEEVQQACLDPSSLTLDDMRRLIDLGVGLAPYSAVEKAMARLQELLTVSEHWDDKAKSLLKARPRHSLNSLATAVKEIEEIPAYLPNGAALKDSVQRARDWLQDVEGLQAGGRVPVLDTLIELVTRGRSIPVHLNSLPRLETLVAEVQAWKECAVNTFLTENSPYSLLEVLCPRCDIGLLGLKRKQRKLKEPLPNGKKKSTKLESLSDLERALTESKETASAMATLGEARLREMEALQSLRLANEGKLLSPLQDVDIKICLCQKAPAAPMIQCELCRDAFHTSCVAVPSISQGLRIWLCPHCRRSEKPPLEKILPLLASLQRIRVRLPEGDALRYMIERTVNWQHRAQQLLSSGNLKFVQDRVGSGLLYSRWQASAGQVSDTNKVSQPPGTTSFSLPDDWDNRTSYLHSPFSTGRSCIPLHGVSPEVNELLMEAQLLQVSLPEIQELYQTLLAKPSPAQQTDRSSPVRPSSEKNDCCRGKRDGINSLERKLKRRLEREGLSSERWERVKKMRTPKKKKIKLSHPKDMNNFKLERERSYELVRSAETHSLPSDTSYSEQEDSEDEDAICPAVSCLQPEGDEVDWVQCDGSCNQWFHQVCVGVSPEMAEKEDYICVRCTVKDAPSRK
Assay: Primary screen for KDM5B Histone Demethylases FDH-coupled qHTS; further: nearly all actives have a fitted effect of over 70% in size
Details: FDH-coupled NADH fluorescence (FDH is formaldehyde dehydrogenase); series mostly up to 57.7 µM
How it was run: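 Measured: NADH fluorescence change, 30 min, RT. System: KDM5BΔAP 200 nM final, H3K4me3 peptide, α-KG, Fe(II), ascorbate, NAD⁺ plus FDH, pH 7.5 HEPES. Compounds: titrated, 10 min pre-incubation with enzyme.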
Potency means the concentration at half of the fitted maximal effect; tags describe the fitted curve by direction and shape.

Compound	Potency
Cc1cc(S(=O)(=O)N2CCN(C)CC2)c(C)cc1Cl	inactive
Cc1ccc(-c2nc(C#N)c(NCCCn3ccnc3)o2)cc1	inactive
COc1ccc(CCNC(=O)c2nnn3cc(C)[nH]c(=O)c23)cc1OC	inactive
O=C(COc1ccc([N+](=O)[O-])cc1)Nc1ccc2oc(-c3cccnc3)nc2c1	inactive
COc1cc(NC(=O)N2CCC3(CC2)Nc2cc(F)ccc2-n2cccc23)cc(OC)c1OC	inconclusive: 25.1 µM [inhibitor, partial curve, poor fit]
Cc1csc2c(=O)sc(NC(=O)c3ccco3)nc12	inconclusive: 28.2 µM [inhibitor, single point]
Cc1cc(C=O)c(C)n1CCc1ccc(Cl)cc1	inactive
Cc1cccnc1CN(Cc1ccccc1)C(=O)C1NCCc2[nH]cnc21 (configuration not stated)	inconclusive: 15.8 µM [inhibitor, partial curve, poor fit]
COc1ccc(OC)c(C2C(C(=O)N3CCCCC3)=C(C)Nc3nc4ccccc4n32)c1 (configuration not stated)	inconclusive: 5.01 µM [inhibitor, partial curve, poor fit]
N#C/C(=C/c1cn(Cc2ccccc2Cl)c2ccccc12)C(=O)Nc1cccc(Cl)c1	inconclusive: 25.1 µM [inhibitor, single point]
O=C(O)CNS(=O)(=O)c1ccccc1C(F)(F)F	inactive
O=C(c1nc(-c2ccc(Cl)nc2)c2cnccn12)N1CCOCC1	inconclusive: 3.16 µM [inhibitor, full curve, poor fit]
Cn1cc(/C=C2/CC(=O)N(c3ccccc3)C2=O)c2ccccc21	inconclusive: 28.2 µM [inhibitor, single point]
COC(=O)c1c(NC(=O)c2cc(OC)c(OC)c(OC)c2Br)sc2c1CCC(C)C2 (configuration not stated)	inconclusive: 25.1 µM [inhibitor, single point]
CC(NC(=O)c1nccnc1N)c1ccccc1Br (configuration not stated)	inconclusive: 28.2 µM [inhibitor, partial curve, poor fit]
CN(Cc1cccs1)c1cc(C2CC(O)C2)ncn1 (configuration not stated)	inactive
COc1cccc(CN(C)CC(C)N2CCOCC2)c1O (configuration not stated)	inconclusive: 22.4 µM [inhibitor, partial curve]
Cc1ccc(-c2cc3c(=O)n(CCNC(=O)c4ccc(N(C)C)cc4)ccn3n2)cc1C	active: 28.2 µM
Cc1ccccc1CC(=O)N1CCN(c2cc(-c3cccs3)[nH]n2)CC1	inconclusive: 20 µM [inhibitor, partial curve, poor fit]
COc1ccc(Cn2c(C3CCN(C(=O)Cc4ccccc4Cl)CC3)n[nH]c2=O)cc1	inactive
O[C@@H]1C[C@@H](c2nc(-c3ccc4c(c3)OCO4)no2)N(CC2CCCCC2)C1	inconclusive: 39.8 µM [inhibitor, single point]
Cc1cccc(NC(=O)N2C[C@@H](F)C[C@H]2C(=O)N2CCc3ccccc3C2)c1C	inactive
Cc1noc(C)c1CCC(=O)N[C@@H]1CCOC[C@H]1Oc1ccccn1	inactive

Compound	Potency
Cc1ccc2nc(-c3cc(-c4ccccc4)no3)cn2c1	inconclusive: 1.78 µM [inhibitor, partial curve, poor fit]
Cc1ccc(NC(=O)c2sc3nc[nH]c(=O)c3c2C)cc1Cl	inconclusive: 35.5 µM [inhibitor, partial curve, poor fit]
Clc1ccc(CO/N=C/c2ccc(OCc3ccccc3)cc2)c(Cl)c1	inactive
CCn1cc(C(=O)NCCc2ccc(OC)c(OC)c2)c(=O)c2cc(S(=O)(=O)N3CCC(C)CC3)ccc21	inconclusive: 31.6 µM [inhibitor, partial curve, poor fit]
Cc1cc(NC(=O)COc2ccc3ccc(=O)oc3c2)no1	inactive
O=C1c2ccccc2NC(c2cccc(O)c2)N1Cc1ccco1 (configuration not stated)	inconclusive: 28.2 µM [inhibitor, partial curve, poor fit]
Cc1cc(F)ccc1NC1(c2ccccc2)C(=O)c2ccccc2C1=O	inconclusive: 25.1 µM [inhibitor, partial curve, poor fit]
NC(=O)c1cccc(-c2cc3c(cn2)CN(Cc2ccncc2)CCN3)c1	inconclusive: 39.8 µM [inhibitor, single point]
C/C(=N\O)c1c(O)cc(-c2ccccc2)n(-c2ccccc2)c1=O	inactive
c1cncc(-c2nc(CC3CCCNC3)no2)c1 (configuration not stated)	inconclusive: 35.5 µM [inhibitor, partial curve, poor fit]
O=C1CCc2cc(NC(=O)C3CCC3)ccc2N1	inconclusive: 28.2 µM [inhibitor, partial curve, poor fit]
CC1(COc2ccccc2)COc2ccc(C(=O)NCc3ccncc3)cc2N1 (configuration not stated)	inconclusive: 39.8 µM [inhibitor, partial curve, poor fit]
CC(NC(=O)CCC1CCCO1)C1CCCO1 (configuration not stated)	inactive
O=C(O)c1cnc(/C=C/c2csc(-c3ccccn3)n2)s1	inconclusive: 22.4 µM [inhibitor, partial curve, poor fit]
COCCn1ccc2ccc(C(=O)NC3CCCc4c3[nH]c3ccccc43)cc21 (configuration not stated)	inconclusive: 12.6 µM [inhibitor, partial curve, poor fit]
CN1C[C@@H]2CC[C@H](CC1=O)N2C(=O)c1cnn2cc(CCO)cnc12	active: 31.6 µM
COCCN(Cc1ccc(C)cc1)Cc1ccc(C#N)cc1	inconclusive: 14.1 µM [inhibitor, partial curve, poor fit]
CN1CC(=O)N(c2cccc(F)c2)Cc2c(NC3CCNCC3)ncnc21	inconclusive: 50.1 µM [inhibitor, partial curve, poor fit]
COCCN1CC(CO)C2(CCN(Cc3ccccc3C(F)(F)F)CC2)C1 (configuration not stated)	inconclusive: 25.1 µM [inhibitor, partial curve]
Cn1nccc1C(=O)N1CCCC(c2nn[nH]n2)C1 (configuration not stated)	inconclusive: 25.1 µM [inhibitor, single point]
COc1ccc(-n2c(-c3ccc(C)cc3)cc3c2CC(C)(C)CC3=O)c(OC)c1	inconclusive: 25.1 µM [inhibitor, single point]
Cc1ccccc1C(=O)NCCc1csc(-c2ccc(C(F)(F)F)cc2)n1	inconclusive: 35.5 µM [inhibitor, single point]
Cc1ccc(C(=O)Oc2c(S(=O)(=O)c3ccccc3)c(C)nn2-c2ccccc2)cc1	inconclusive: 22.4 µM [inhibitor, partial curve, poor fit]

Compound	Potency
O=C(O)c1ccc(CC2CCN(C(=O)CCn3cccc3)C2)cc1 (configuration not stated)	inactive
COc1ccc(-c2nc(C3CC3)nc3c2CN(C(=O)c2ccccn2)CC3)cc1	inconclusive: 56.2 µM [inhibitor, partial curve, poor fit]
COCCN1CCn2c(nc3cc(NS(C)(=O)=O)ccc32)C1	inconclusive: 39.8 µM [inhibitor, single point]
COc1cc(NC(=O)Cn2c(N3CCC(C)CC3)nc(C)cc2=O)cc(OC)c1	inactive
Nc1nccnc1C(=O)NCCCc1nc2ccccc2[nH]1	inconclusive: 22.4 µM [inhibitor, partial curve, poor fit]
c1ccc(CCc2noc(-c3ccc(NCCN4CCCC4)nc3)n2)cc1	inconclusive: 28.2 µM [inhibitor, partial curve, poor fit]
COc1ccc(-c2ccc3c(c2)C(=O)N2CC[C@H](NC(=O)c4cccs4)[C@H]2C(=O)N3)cc1	inconclusive: 35.5 µM [inhibitor, single point]
Cn1nc2n(c1=O)CCC(NC(=O)CN1CCCC1=O)CC2 (configuration not stated)	inconclusive: 28.2 µM [inhibitor, partial curve, poor fit]
O=C(CSc1nc2ccccc2s1)Nc1ccc(F)c(F)c1	inactive
CC(C)(C)NC(=O)CSc1nnc(-c2cccnc2)o1	inactive
COc1ccccc1N1CCN([C@@H]2[C@H](O)[C@H](CO)O[C@@H]2CN(Cc2ccc(F)cc2)Cc2ccc(F)cc2)CC1	inconclusive: 15.8 µM [inhibitor, partial curve, poor fit]
COC(=O)c1cccc(NC(=O)c2nsc3ccccc23)c1	inconclusive: 35.5 µM [inhibitor, single point]
COc1ccc(CCNC(=O)c2ccc3c(c2)N(Cc2ccccc2F)C(=O)c2ccccc2S3=O)cc1OC (configuration not stated)	inconclusive: 31.6 µM [inhibitor, single point]
CC(C)(C)C1=N/C(=C/c2ccc(OC(F)F)cc2)C(=O)O1	inactive
O=C(NCc1cccnc1)c1ccc(-c2ccc(N3CCSCC3)nc2)cc1	inconclusive: 11.2 µM [inhibitor, partial curve, poor fit]
COc1ccc(C(C)=O)cc1CC(=O)N(Cc1ccccc1)c1ccccc1	inconclusive: 2.51 µM [inhibitor, full curve, poor fit]
O=C(Nc1ccc2oc(-c3ccncc3)nc2c1)c1ccco1	inconclusive: 35.5 µM [inhibitor, partial curve, poor fit]
CCN(CC)Cc1cnc2c(C(=O)NC[C@@H](C)O)cnn2c1	inconclusive: 39.8 µM [inhibitor, single point]
CCCS(=O)(=O)N1CCC2(CC1)CC1C(=O)NCCN1C2 (configuration not stated)	inconclusive: 15.8 µM [inhibitor, partial curve]
Cc1cccc(C(=O)N(Cc2ccco2)c2ccccn2)c1	inactive
O=C(NCc1ccccn1)c1ccc2nc(-c3ccccc3)c(-c3ccccc3)nc2c1	inconclusive: 2 µM [inhibitor, full curve, poor fit]
